# Measured values as given in the supplement of paper PMC8728848.
# The list shows a part of the results.
# B1: PVL (Psathyrella velutina), Q309D1_9AGAR (protein)
# chain: MSVVVISQALPVPTRIPGVADLVGFGNGGVYIIRNSLLIQVVKVINNFGYDAGGWRVEKHVRLLADTTGDNQPDVVGFGENGVWISTNNGNNTFVDPPKMVLANFAYAAGGWRVEKHIRFMADLRKTGRADIVGFGDGGIYISRNNGGGQFAPAQLALNNFGYAQGWRLDRHLRFLADVTGDGLLDVVGFGENQVYIARNSGNGTFQPAQAVVNNFCIGAGGWTISAHPRVVADLTGDRKADILGFGVAGVYTSLNNGNGTFGAVNLVLKDFGVNSGWRVEKHVRCVSSLTNKKVGDIIGFGDAGVYVALNNGNGTFGPVKRVIDNFGYNQGWRVDKHPRFVVDLTGDGCADIVGFGENSVWACMNKGDGTFGPIMKLIDDMTVSKGWTLQKTVRYAANLYL
# How the values were obtained:
# Assay in all cases: glycan array binding signal (z-score within array); higher = stronger binding
# Settings in all cases: glycan notation: IUPAC condensed, linker removed
# [1] = target: Neu5Ac(a2-3)Gal(b1-3)GlcNAc(b1-6)GalNAc
# Method in brief: (§1)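 The binding signal is a Z-score computed within each array. Data were drawn from 3228 arrays in the Consortium for Functional Glycomics database, restricted to those with a known protein sequence. Scores were averaged over arrays of the same protein sequence at different concentrations or buffers, and over linkers, and negative values can be taken as non-binding.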
# [2] = target: Neu5Ac(a2-3)Gal(b1-3)GlcNAc6S
# Method in brief: as §1
# [3] = target: Neu5Ac(a2-3)Gal(b1-3)[Fuc(a1-4)]GlcNAc
# Method in brief: as §1
# [4] = target: Neu5Ac(a2-3)Gal(b1-3)[Fuc(a1-4)]GlcNAc(b1-3)Gal(b1-3)[Fuc(a1-4)]GlcNAc
# Method in brief: as §1
# [5] = target: Neu5Ac(a2-3)Gal(b1-3)[Fuc(a1-4)]GlcNAc(b1-3)Gal(b1-4)[Fuc(a1-3)]GlcNAc
# Method in brief: as §1
# [6] = target: Neu5Ac(a2-3)Gal(b1-3)[GlcNAc(b1-6)]GalNAc
# Method in brief: as §1
# [7] = target: Neu5Ac(a2-3)Gal(b1-3)[Neu5Ac(a2-6)]GalNAc
# Method in brief: as §1
# [8] = target: Neu5Ac(a2-3)Gal(b1-3)[Neu5Ac(a2-6)]GlcNAc(b1-3)[Fuc(a1-3)[Gal(b1-4)]GlcNAc(b1-6)]Gal(b1-4)Glc
# Method in brief: as §1
# [9] = target: Neu5Ac(a2-3)Gal(b1-3)]Neu5Ac(a2-3)Gal(b1-4)]GlcNAc
# Method in brief: as §1
# [10] = target: Neu5Ac(a2-3)Gal(b1-4)Glc
# Method in brief: as §1
# [11] = target: Neu5Ac(a2-3)Gal(b1-4)GlcNAc
# Method in brief: as §1
# [12] = target: Neu5Ac(a2-3)Gal(b1-4)GlcNAc(b1-2)Man
# Method in brief: as §1
# [13] = target: Neu5Ac(a2-3)Gal(b1-4)GlcNAc(b1-2)Man(a1-3)[GlcNAc(b1-4)][Neu5Ac(a2-3)Gal(b1-4)GlcNAc(b1-2)Man(a1-6)]Man(b1-4)GlcNAc(b1-4)GlcNAc
# Method in brief: as §1
# [14] = target: Neu5Ac(a2-3)Gal(b1-4)GlcNAc(b1-2)Man(a1-3)[Neu5Ac(a2-3)Gal(b1-4)GlcNAc(b1-2)Man(a1-6)]Man(b1-4)GlcNAc(b1-4)GlcNAc
# Method in brief: as §1
# [15] = target: Neu5Ac(a2-3)Gal(b1-4)GlcNAc(b1-2)Man(a1-3)[Neu5Ac(a2-3)Gal(b1-4)GlcNAc(b1-2)Man(a1-6)]Man(b1-4)GlcNAc(b1-4)[Fuc(a1-6)]GlcNAc
# Method in brief: as §1
# [16] = target: Neu5Ac(a2-3)Gal(b1-4)GlcNAc(b1-2)Man(a1-3)[Neu5Ac(a2-6)Gal(b1-4)GlcNAc(b1-2)Man(a1-6)]Man(b1-4)GlcNAc(b1-4)GlcNAc
# Method in brief: as §1
# [17] = target: Neu5Ac(a2-3)Gal(b1-4)GlcNAc(b1-2)[Neu5Ac(a2-3)Gal(b1-4)GlcNAc(b1-4)]Man(a1-3)[GlcNAc(b1-4)][Neu5Ac(a2-3)Gal(b1-4)GlcNAc(b1-2)[Neu5Ac(a2-3)Gal(b1-4)GlcNAc(b1-6)]Man(a1-6)]Man(b1-4)GlcNAc(b1-4)GlcNAc
# Method in brief: as §1
# [18] = target: Neu5Ac(a2-3)Gal(b1-4)GlcNAc(b1-2)[Neu5Ac(a2-3)Gal(b1-4)GlcNAc(b1-4)]Man(a1-3)[GlcNAc(b1-4)][Neu5Ac(a2-3)Gal(b1-4)GlcNAc(b1-4)Man(a1-6)]Man(b1-4)GlcNAc(b1-4)GlcNAc
# Method in brief: as §1
# [19] = target: Neu5Ac(a2-3)Gal(b1-4)GlcNAc(b1-2)[Neu5Ac(a2-3)Gal(b1-4)GlcNAc(b1-6)]Man(a1-6)[Neu5Ac(a2-3)Gal(b1-4)GlcNAc(b1-2)Man(a1-3)][GlcNAc(b1-4)]Man(b1-4)GlcNAc(b1-4)GlcNAc
# Method in brief: as §1
# [20] = target: Neu5Ac(a2-3)Gal(b1-4)GlcNAc(b1-3)Gal
# Method in brief: as §1
# [21] = target: Neu5Ac(a2-3)Gal(b1-4)GlcNAc(b1-3)Gal(b1-3)GlcNAc
# Method in brief: as §1
# [22] = target: Neu5Ac(a2-3)Gal(b1-4)GlcNAc(b1-3)Gal(b1-4)GlcNAc
# Method in brief: as §1
# [23] = target: Neu5Ac(a2-3)Gal(b1-4)GlcNAc(b1-3)Gal(b1-4)GlcNAc(b1-2)Man(a1-3)[Neu5Ac(a2-3)Gal(b1-4)GlcNAc(b1-3)Gal(b1-4)GlcNAc(b1-2)Man(a1-6)]Man(b1-4)GlcNAc(b1-4)GlcNAc
# Method in brief: as §1
# [24] = target: Neu5Ac(a2-3)Gal(b1-4)GlcNAc(b1-3)Gal(b1-4)GlcNAc(b1-3)Gal(b1-4)GlcNAc
# Method in brief: as §1
# [25] = target: Neu5Ac(a2-3)Gal(b1-4)GlcNAc(b1-3)Gal(b1-4)GlcNAc(b1-3)Gal(b1-4)GlcNAc(b1-2)Man(a1-3)[Neu5Ac(a2-3)Gal(b1-4)GlcNAc(b1-3)Gal(b1-4)GlcNAc(b1-3)Gal(b1-4)GlcNAc(b1-2)Man(a1-6)]GalNAc
# Method in brief: as §1
# [26] = target: Neu5Ac(a2-3)Gal(b1-4)GlcNAc(b1-3)Gal(b1-4)GlcNAc(b1-3)GalNAc
# Method in brief: as §1
# [27] = target: Neu5Ac(a2-3)Gal(b1-4)GlcNAc(b1-3)Gal(b1-4)GlcNAc(b1-3)[Neu5Ac(a2-3)Gal(b1-4)GlcNAc(b1-3)Gal(b1-4)GlcNAc(b1-6)]GalNAc
# Method in brief: as §1
# [28] = target: Neu5Ac(a2-3)Gal(b1-4)GlcNAc(b1-3)Gal(b1-4)GlcNAc(b1-6)[Gal(b1-3)]GalNAc
# Method in brief: as §1
# [29] = target: Neu5Ac(a2-3)Gal(b1-4)GlcNAc(b1-3)Gal(b1-4)[Fuc(a1-3)]GlcNAc
# Method in brief: as §1
# [30] = target: Neu5Ac(a2-3)Gal(b1-4)GlcNAc(b1-3)GalNAc
# Method in brief: as §1
binder,measurement,setting,value
B1,glycan array binding signal (z-score),[1],-0.344
same,glycan array binding signal (z-score),[2],-0.359
same,glycan array binding signal (z-score),[3],-0.129
same,glycan array binding signal (z-score),[4],-0.304
same,glycan array binding signal (z-score),[5],-0.232
same,glycan array binding signal (z-score),[6],-0.038
same,glycan array binding signal (z-score),[7],0.067
same,glycan array binding signal (z-score),[8],-0.302
same,glycan array binding signal (z-score),[9],0.362
same,glycan array binding signal (z-score),[10],-0.295
same,glycan array binding signal (z-score),[11],-0.206
same,glycan array binding signal (z-score),[12],-0.35
same,glycan array binding signal (z-score),[13],-0.318
same,glycan array binding signal (z-score),[14],-0.124
same,glycan array binding signal (z-score),[15],0.357
same,glycan array binding signal (z-score),[16],-0.328
same,glycan array binding signal (z-score),[17],-0.201
same,glycan array binding signal (z-score),[18],-0.284
same,glycan array binding signal (z-score),[19],-0.3
same,glycan array binding signal (z-score),[20],-0.075
same,glycan array binding signal (z-score),[21],-0.107
same,glycan array binding signal (z-score),[22],-0.113
same,glycan array binding signal (z-score),[23],0.564
same,glycan array binding signal (z-score),[24],0.557
same,glycan array binding signal (z-score),[25],-0.299
same,glycan array binding signal (z-score),[26],0.268
same,glycan array binding signal (z-score),[27],0.034
same,glycan array binding signal (z-score),[28],-0.243
same,glycan array binding signal (z-score),[29],-0.285
same,glycan array binding signal (z-score),[30],-0.316
